Key:
Format in all cases: in vivo
Botrytis cinerea = test: Test Example B: Gray mold on tomato; conditions: for Test B (control value class, gray mold on tomato): in vivo; for Test B control value (gray mold on tomato): preventive, control value class
Excerpt: [Test Example B] Gray Mold on Tomato
Seeds of a test plant (tomato variety: Oogata Fukuju) were planted followed by cultivating until three to five first leaves (true leaves) appeared.

Alternaia brassicicola = test: Test Example C: Alternaria sooty spot on cabbage; conditions: for Test C control value / Test C (control value class): Alternaria sooty spot on cabbage; for Test C (control value class, Alternaria sooty spot on cabbage): in vivo; for Test C control value (Alternaria sooty spot on cabbage): preventive, control value class
Excerpt: [Test Example C] Alternaria Sooty Spot on Cabbage
Seeds of a test plant (cabbage variety: Shikidori) were planted followed by cultivating until the cotyledons extended.

[1] = tested on: Blumeria graminis f sp. hordei; test: Test Example D: Powdery mildew on barley; conditions: for Test D (control value class, powdery mildew on barley): in vivo; for Test D control value (powdery mildew on barley): preventive, control value class
Excerpt: [Test Example D] Powdery Mildew on Barley
After the sprayed dilutions were dried, conidia of Blumeria graminis f sp. hordei were inoculated to the plants by shaking off.

Puccinia recondita = test: Test Example E: Brown rust on wheat; conditions: for Test E (control value class, brown rust on wheat): in vivo; for Test E control value (brown rust on wheat): preventive, control value class
Excerpt: [Test Example E] Brown Rust on Wheat

Plasmopara viticola = test: Test Example G: Downy mildew on vine; conditions: for Test G control value: 250 ppm sprayed before inoculation; for Test G (control value class, downy mildew on vine): 250 ppm, sprayed 2.5 ml/pot before inoculation; for Test G (control value class): 250 ppm spray; for Test G control value (downy mildew on vine): 250 ppm spray (2.5 ml/pot), preventive, control value class
Excerpt: [Test Example G] Downy Mildew on Vine
Seeds of a test plant (grape variety: Neomuscat) were planted followed by cultivating until three to four first leaves appeared. […] After the sprayed dilutions were dried, a zoosporangia suspension (1-2×10^4 zoosporangia/ml) of Plasmopara viticola was inoculated to the plants by spraying.

[2] = Downy mildew on vine, 7-10 days after inoculation
[3] = evaluated 7-10 days after inoculation
[4] = gray mold on tomato, Botrytis cinerea, 250 ppm spray
[5] = powdery mildew on barley, 250 ppm spray
[6] = brown rust on wheat, Puccinia recondita, 250 ppm spray
[7] = downy mildew on vine, Plasmopara viticola, 7-10 days after inoculation
[8] = Gray mold on tomato, control value=100{1-(n/3)}
[9] = Powdery mildew on barley, control value=100{1-(n/3)}
[10] = Brown rust on wheat, control value=100{1-(n/3)}
[11] = Downy mildew on vine, 2.5 ml/pot, evaluated 7-10 days after inoculation

CCN1C(=O)CCC(c2cccc(F)c2)=C1c1c(F)cccc1F [Compound 156]
Test B control value (Botrytis cinerea; Gray mold on tomato): H (H shows more than 50% of control values)
Test C control value (Alternaia brassicicola): H (H shows more than 50% of control values)
Test D control value ([1]; Powdery mildew on barley): H (H shows more than 50% of control values)
Test E control value (Puccinia recondita; Brown rust on wheat): H (H shows more than 50% of control values)
Test G control value (Plasmopara viticola; [2]): H (H shows more than 50% of control values)

O=c1ccc(-c2ccc(F)cc2F)c(-c2c(F)cccc2F)n1CC(F)F [Compound 647]
Test B (control value class, gray mold on tomato) (Botrytis cinerea): H (H shows more than 50% of control values)
Test C (control value class, Alternaria sooty spot on cabbage) (Alternaia brassicicola): H (H shows more than 50% of control values)
Test D (control value class, powdery mildew on barley) [1]: H (H shows more than 50% of control values)
Test E (control value class, brown rust on wheat) (Puccinia recondita): H (H shows more than 50% of control values)
Test G (control value class, downy mildew on vine) (Plasmopara viticola; [3]): H (H shows more than 50% of control values)

CN1C(=O)CCC(c2cc(F)ccc2F)=C1c1c(F)cccc1F [Compound 480]
Test B (control value class) (Botrytis cinerea; [4]): H (H shows more than 50% of control values)
Test C (control value class) (Alternaia brassicicola; 250 ppm spray): L (L shows 50% or less of control values)
Test D (control value class) [1, 5]: L (L shows 50% or less of control values)
Test E (control value class) (Puccinia recondita; [6]): L (L shows 50% or less of control values)
Test G (control value class) (Plasmopara viticola; [7]): L (L shows 50% or less of control values)

CCn1c(-c2c(F)cccc2F)c(-c2ccc(OC)cc2Cl)cc(Br)c1=O [Compound 737]
Test B (control value class, gray mold on tomato) (Botrytis cinerea): H (H shows more than 50% of control values)
Test C (control value class, Alternaria sooty spot on cabbage) (Alternaia brassicicola): H (H shows more than 50% of control values)
Test D (control value class, powdery mildew on barley) [1]: L (L shows 50% or less of control values)
Test E (control value class, brown rust on wheat) (Puccinia recondita): H (H shows more than 50% of control values)
Test G (control value class, downy mildew on vine) (Plasmopara viticola; [3]): H (H shows more than 50% of control values)

CCn1c(-c2c(F)cccc2F)c(-c2cc(OC[Si](C)(C)C)ccc2Cl)ccc1=O [Compound 260]
Test B control value (gray mold on tomato) (Botrytis cinerea; 250 ppm spray): L (L shows 50% or less of control values)
Test C control value (Alternaria sooty spot on cabbage) (Alternaia brassicicola; 250 ppm spray): H (H shows more than 50% of control values)
Test D control value (powdery mildew on barley) ([1]; 250 ppm spray): H (H shows more than 50% of control values)
Test E control value (brown rust on wheat) (Puccinia recondita; 250 ppm spray): L (L shows 50% or less of control values)
Test G control value (downy mildew on vine) (Plasmopara viticola; 7-10 days after inoculation): L (L shows 50% or less of control values)

CCn1c(-c2c(F)cc(OC)cc2F)c(-c2ccccc2Br)cc(Cl)c1=O [Compound 668]
Test B (control value class, gray mold on tomato) (Botrytis cinerea): H (H shows more than 50% of control values)
Test C (control value class, Alternaria sooty spot on cabbage) (Alternaia brassicicola): H (H shows more than 50% of control values)
Test D (control value class, powdery mildew on barley) [1]: H (H shows more than 50% of control values)
Test E (control value class, brown rust on wheat) (Puccinia recondita): H (H shows more than 50% of control values)
Test G (control value class, downy mildew on vine) (Plasmopara viticola; [3]): H (H shows more than 50% of control values)

COc1cc(F)c(-c2c(-c3ccc(OC)cc3Cl)cc(Cl)c(=O)n2C)c(F)c1 [Compound 776]
Test B (control value class) (Botrytis cinerea; [8]): L (L shows 50% or less of control values)
Test C (control value class) (Alternaia brassicicola; control value=100{1-(n/3)}): L (L shows 50% or less of control values)
Test D (control value class) [1, 9]: L (L shows 50% or less of control values)
Test E (control value class) (Puccinia recondita; [10]): L (L shows 50% or less of control values)
Test G (control value class) (Plasmopara viticola; [11]): L (L shows 50% or less of control values)

Cn1c(-c2c(F)cc(F)cc2F)c(-c2cc(F)ccc2Cl)cc(Br)c1=O [Compound 757]
Test B (control value class) (Botrytis cinerea; [8]): H (H shows more than 50% of control values)
Test C (control value class) (Alternaia brassicicola; control value=100{1-(n/3)}): H (H shows more than 50% of control values)
Test D (control value class) [1, 9]: H (H shows more than 50% of control values)
Test E (control value class) (Puccinia recondita; [10]): H (H shows more than 50% of control values)
Test G (control value class) (Plasmopara viticola; [11]): H (H shows more than 50% of control values)

C#CCOc1ccc(Cl)c(-c2ccc(=O)n(C)c2-c2c(F)cccc2F)c1 [Compound 243]
Test B control value (gray mold on tomato) (Botrytis cinerea; 250 ppm spray): H (H shows more than 50% of control values)
Test C control value (Alternaria sooty spot on cabbage) (Alternaia brassicicola; 250 ppm spray): H (H shows more than 50% of control values)
Test D control value (powdery mildew on barley) ([1]; 250 ppm spray): H (H shows more than 50% of control values)
Test E control value (brown rust on wheat) (Puccinia recondita; 250 ppm spray): H (H shows more than 50% of control values)
Test G control value (downy mildew on vine) (Plasmopara viticola; 7-10 days after inoculation): H (H shows more than 50% of control values)

CCn1c(-c2c(F)cc(C)cc2F)c(-c2cc(F)ccc2Cl)ccc1=O [Compound 707]
Test B (control value class, gray mold on tomato) (Botrytis cinerea): H (H shows more than 50% of control values)
Test C (control value class, Alternaria sooty spot on cabbage) (Alternaia brassicicola): L (L shows 50% or less of control values)
Test D (control value class, powdery mildew on barley) [1]: L (L shows 50% or less of control values)
Test E (control value class, brown rust on wheat) (Puccinia recondita): H (H shows more than 50% of control values)
Test G (control value class, downy mildew on vine) (Plasmopara viticola; [3]): L (L shows 50% or less of control values)

CCn1c(-c2c(F)cccc2F)c(-c2ccc(OC)cc2)ccc1=O [Compound 301]
Test B control value (gray mold on tomato) (Botrytis cinerea; 250 ppm spray): H (H shows more than 50% of control values)
Test C control value (Alternaria sooty spot on cabbage) (Alternaia brassicicola; 250 ppm spray): H (H shows more than 50% of control values)
Test D control value (powdery mildew on barley) ([1]; 250 ppm spray): H (H shows more than 50% of control values)
Test E control value (brown rust on wheat) (Puccinia recondita; 250 ppm spray): H (H shows more than 50% of control values)
Test G control value (downy mildew on vine) (Plasmopara viticola; 7-10 days after inoculation): L (L shows 50% or less of control values)

CCn1c(-c2c(F)cc(OC)cc2F)c(-c2ccc(OC)cc2Cl)ccc1=O [Compound 755]
Test B (control value class) (Botrytis cinerea; [8]): H (H shows more than 50% of control values)
Test C (control value class) (Alternaia brassicicola; control value=100{1-(n/3)}): H (H shows more than 50% of control values)
Test D (control value class) [1, 9]: H (H shows more than 50% of control values)
Test E (control value class) (Puccinia recondita; [10]): H (H shows more than 50% of control values)
Test G (control value class) (Plasmopara viticola; [11]): H (H shows more than 50% of control values)

CCn1c(-c2c(F)cc(F)cc2F)c(-c2cc(OC)cc(OC)c2Cl)ccc1=O [Compound 696]
Test B (control value class, gray mold on tomato) (Botrytis cinerea): H (H shows more than 50% of control values)
Test C (control value class, Alternaria sooty spot on cabbage) (Alternaia brassicicola): H (H shows more than 50% of control values)
Test D (control value class, powdery mildew on barley) [1]: H (H shows more than 50% of control values)
Test E (control value class, brown rust on wheat) (Puccinia recondita): H (H shows more than 50% of control values)
Test G (control value class, downy mildew on vine) (Plasmopara viticola; [3]): H (H shows more than 50% of control values)

CCn1c(-c2c(F)cccc2F)c(-c2cccc(Cl)c2)cc(Cl)c1=O [Compound 178]
Test B control value (Botrytis cinerea; Gray mold on tomato): L (L shows 50% or less of control values)
Test C control value (Alternaia brassicicola): H (H shows more than 50% of control values)
Test D control value ([1]; Powdery mildew on barley): L (L shows 50% or less of control values)
Test E control value (Puccinia recondita; Brown rust on wheat): L (L shows 50% or less of control values)
Test G control value (Plasmopara viticola; [2]): L (L shows 50% or less of control values)

CCn1c(-c2c(F)cccc2F)c(-c2cccc(F)c2F)cc(C)c1=O [Compound 534]
Test B (control value class) (Botrytis cinerea; [4]): H (H shows more than 50% of control values)
Test C (control value class) (Alternaia brassicicola; 250 ppm spray): H (H shows more than 50% of control values)
Test D (control value class) [1, 5]: H (H shows more than 50% of control values)
Test E (control value class) (Puccinia recondita; [6]): H (H shows more than 50% of control values)
Test G (control value class) (Plasmopara viticola; [7]): L (L shows 50% or less of control values)

CCn1c(-c2c(F)cc(OC)cc2F)c(-c2ccccc2Cl)cc(Cl)c1=O [Compound 434]
Test B (control value class) (Botrytis cinerea; [4]): H (H shows more than 50% of control values)
Test C (control value class) (Alternaia brassicicola; 250 ppm spray): H (H shows more than 50% of control values)
Test D (control value class) [1, 5]: H (H shows more than 50% of control values)
Test E (control value class) (Puccinia recondita; [6]): H (H shows more than 50% of control values)
Test G (control value class) (Plasmopara viticola; [7]): H (H shows more than 50% of control values)

CCn1c(-c2c(F)cccc2Br)c(-c2cc(OC)cc(OC)c2Br)ccc1=O [Compound 176]
Test B control value (Botrytis cinerea; Gray mold on tomato): H (H shows more than 50% of control values)
Test C control value (Alternaia brassicicola): H (H shows more than 50% of control values)
Test D control value ([1]; Powdery mildew on barley): H (H shows more than 50% of control values)
Test E control value (Puccinia recondita; Brown rust on wheat): H (H shows more than 50% of control values)
Test G control value (Plasmopara viticola; [2]): H (H shows more than 50% of control values)

CCOc1cc(F)c(-c2c(-c3ccccc3Cl)cc(Cl)c(=O)n2CC)c(F)c1 [Compound 684]
Test B (control value class, gray mold on tomato) (Botrytis cinerea): H (H shows more than 50% of control values)
Test C (control value class, Alternaria sooty spot on cabbage) (Alternaia brassicicola): H (H shows more than 50% of control values)
Test D (control value class, powdery mildew on barley) [1]: H (H shows more than 50% of control values)
Test E (control value class, brown rust on wheat) (Puccinia recondita): H (H shows more than 50% of control values)
Test G (control value class, downy mildew on vine) (Plasmopara viticola; [3]): H (H shows more than 50% of control values)

C#CCn1c(-c2c(F)cccc2F)c(-c2cc(OC)ccc2Cl)cc(Cl)c1=O [Compound 462]
Test B (control value class) (Botrytis cinerea; [4]): H (H shows more than 50% of control values)
Test C (control value class) (Alternaia brassicicola; 250 ppm spray): H (H shows more than 50% of control values)
Test D (control value class) [1, 5]: H (H shows more than 50% of control values)
Test E (control value class) (Puccinia recondita; [6]): H (H shows more than 50% of control values)
Test G (control value class) (Plasmopara viticola; [7]): H (H shows more than 50% of control values)

From patent US10299477B2 (priority 2015, dated 2019)
